Assay results taken from publication PMC4336329 (PLoS ONE, 2015).
About 2,200 (0.71%) of roughly 310,000 compounds showed an effect of 50% or more. The effect is printed as a negative number. The list shows a part of the results.

These compounds were tested against human ether-à-go-go-related gene (hERG) potassium channel (human, UniProt Q12809) (assay: primary screen, population patch clamp on CHO cells stably expressing hERG).
Sequence of human ether-à-go-go-related gene (hERG) potassium channel (Q12809 whole entry, looked up): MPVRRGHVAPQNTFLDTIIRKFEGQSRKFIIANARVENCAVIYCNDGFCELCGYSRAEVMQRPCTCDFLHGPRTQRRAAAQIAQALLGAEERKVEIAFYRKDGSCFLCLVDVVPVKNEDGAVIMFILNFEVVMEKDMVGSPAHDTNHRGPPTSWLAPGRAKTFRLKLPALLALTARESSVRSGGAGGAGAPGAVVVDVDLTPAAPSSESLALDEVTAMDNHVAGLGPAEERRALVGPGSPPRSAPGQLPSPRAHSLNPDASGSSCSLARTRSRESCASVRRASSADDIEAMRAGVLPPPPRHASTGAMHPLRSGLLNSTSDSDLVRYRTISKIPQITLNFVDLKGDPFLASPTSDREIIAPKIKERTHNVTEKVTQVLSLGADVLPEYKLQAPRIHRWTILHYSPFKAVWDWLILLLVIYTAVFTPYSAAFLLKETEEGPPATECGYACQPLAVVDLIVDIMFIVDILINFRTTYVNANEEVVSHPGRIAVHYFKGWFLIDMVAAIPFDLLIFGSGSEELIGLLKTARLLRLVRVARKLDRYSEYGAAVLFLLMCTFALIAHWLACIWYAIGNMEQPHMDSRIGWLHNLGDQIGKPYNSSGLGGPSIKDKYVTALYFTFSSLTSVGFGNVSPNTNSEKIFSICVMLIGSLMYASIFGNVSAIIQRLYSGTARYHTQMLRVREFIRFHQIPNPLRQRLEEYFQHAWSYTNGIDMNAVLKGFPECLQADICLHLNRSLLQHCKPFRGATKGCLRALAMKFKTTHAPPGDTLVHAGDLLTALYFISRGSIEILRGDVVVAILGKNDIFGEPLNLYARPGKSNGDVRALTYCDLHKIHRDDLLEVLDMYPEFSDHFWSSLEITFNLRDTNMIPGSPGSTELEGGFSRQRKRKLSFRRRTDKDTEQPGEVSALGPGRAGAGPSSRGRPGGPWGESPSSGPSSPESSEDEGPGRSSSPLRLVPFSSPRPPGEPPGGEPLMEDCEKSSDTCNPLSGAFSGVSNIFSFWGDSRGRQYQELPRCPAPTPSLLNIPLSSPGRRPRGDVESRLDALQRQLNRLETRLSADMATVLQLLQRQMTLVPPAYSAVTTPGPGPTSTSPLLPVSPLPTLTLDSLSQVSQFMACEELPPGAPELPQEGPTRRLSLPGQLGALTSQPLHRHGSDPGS
In the case of `Cc1ccc2occ(/C=N/NC(=O)c3ccccc3C)c(=O)c2c1`, the “hERG current change (%, negative = inhibition) at 1uM” value is reported as 12.8%.
`O=C(Cc1ccsc1)Nc1ccc(Cl)cc1Cl` was tested, and the “hERG current change (%, negative = inhibition) at 1uM” value was 16%.
`Cc1ccc(-c2csc3ncnc(SCC(=O)O)c23)cc1` was tested, and the “hERG current change (%, negative = inhibition) at 1uM” value was 1.72%.
With `CCN=C1S/C(=C\c2cn(CC(=O)NCc3ccco3)c3ccccc23)C(=O)N1CC` the “hERG current change (%, negative = inhibition) at 1uM” value was 13.8%.
In the case of `N#Cc1c2c(c(NCCCN3CCOCC3)n3c1nc1ccccc13)CCC2`, the “hERG current change (%, negative = inhibition) at 1uM” value is reported as -10.1%.
For `CCc1ccc(-c2cc(C)no2)cc1S(=O)(=O)Nc1cc(C)on1`, the “hERG current change (%, negative = inhibition) at 1uM” value was 13.8%.
For `Cc1sc(NC(=O)c2ccco2)nc1-c1ccccc1`, the “hERG current change (%, negative = inhibition) at 1uM” value was 12.7%.
With `O=C(Nc1cc(C(F)(F)F)cc(C(F)(F)F)c1)c1ccc(Cn2cc(C(F)(F)F)ccc2=O)cc1` the “hERG current change (%, negative = inhibition) at 1uM” value was 7.82%.
For `O=C(OCc1nc2ccccc2s1)[C@@H]1CCCN1S(=O)(=O)c1ccccc1F`, the “hERG current change (%, negative = inhibition) at 1uM” value was 4.54%.
`O=C(Nc1ccncc1)C1CCN(S(=O)(=O)c2cccs2)CC1` was tested, and the “hERG current change (%, negative = inhibition) at 1uM” value was 11.1%.
In the case of `COc1ccc(-c2nnc(SC(C)C(=O)NC3CC3)o2)cc1` (stereo not shown), the “hERG current change (%, negative = inhibition) at 1uM” value is reported as 12.3%.
For `Cc1ccc(/C=C/C(=O)Nn2cnnc2)cc1`, the “hERG current change (%, negative = inhibition) at 1uM” value was 8.62%.
`Br.CCN(CC)CCn1c(=N)n(CC(=O)c2ccc(Br)s2)c2ccccc21` was tested, and the “hERG current change (%, negative = inhibition) at 1uM” value was -6.42%.
With `Cc1ccc(S(=O)(=O)c2nc(Cc3ccccc3)oc2N2CCOCC2)cc1` the “hERG current change (%, negative = inhibition) at 1uM” value was 2.15%.
For `O=C(CCn1cccc1)Nc1cccc(F)c1`, the “hERG current change (%, negative = inhibition) at 1uM” value was -11%.
In the case of `CC(=O)c1cccc(NC(=O)c2ccc(C)o2)c1`, the “hERG current change (%, negative = inhibition) at 1uM” value is reported as 12.2%.
With `COc1cc(/C=C2\SC(=S)N(NC(=O)c3ccncc3)C2=O)ccc1O` the “hERG current change (%, negative = inhibition) at 1uM” value was 13.3%.
With `COCCn1c(SCC(=O)NC(C)c2ccccc2)nc2ccccc21` (stereo not shown) the “hERG current change (%, negative = inhibition) at 1uM” value was -5.32%.
With `COCC(C)N1CC(O)=C(c2nc(-c3ccc(Cl)cc3)cs2)C1=N` (stereo not shown) the “hERG current change (%, negative = inhibition) at 1uM” value was 13.5%.
With `ON=C1CCN(c2ncc(C(F)(F)F)cc2Cl)CC1` the “hERG current change (%, negative = inhibition) at 1uM” value was -9.39%.
For `O=C(CSc1ccc(F)cc1)NNC(=O)c1ccccc1Br`, the “hERG current change (%, negative = inhibition) at 1uM” value was 17.2%.
For `O=C(OCc1ccccc1)/C(=C/c1cccc2ccccc12)NC(=O)c1ccccc1`, the “hERG current change (%, negative = inhibition) at 1uM” value was 10.4%.
For `NNC(=O)c1oc2nc(-c3ccccc3)cc(-c3ccco3)c2c1N`, the “hERG current change (%, negative = inhibition) at 1uM” value was 3.36%.
`CCC(C)N(C(=O)CSc1nc(C)nc2ccccc12)C1CCS(=O)(=O)C1` (stereo not shown) was tested, and the “hERG current change (%, negative = inhibition) at 1uM” value was -11.1%.
In the case of `COc1ccc(CNC(=O)[C@@H]2CC=C[C@@H]3CCN(Cc4ccccc4)C(=O)[C@@H]32)cc1`, the “hERG current change (%, negative = inhibition) at 1uM” value is reported as 12.7%.
